Experimental data reported in the supplement of paper PMC3334620.
Over roughly 33,000 sequences, “E-score (-0.5 to 0.5)” has its median near -0.013; the highest 2% begin near 0.3. The list shows a part of the results.

molecular target: T1, Msn1 (UniProt P22148); assay: PBM E-score (8-mer binding enrichment) (E-score (-0.5 to 0.5)); higher = stronger / more preferred TF binding; most listed sequences are background and not binding sites; conditions: protein concentration: 200 nM; construct: GST-full length
T1 sequence: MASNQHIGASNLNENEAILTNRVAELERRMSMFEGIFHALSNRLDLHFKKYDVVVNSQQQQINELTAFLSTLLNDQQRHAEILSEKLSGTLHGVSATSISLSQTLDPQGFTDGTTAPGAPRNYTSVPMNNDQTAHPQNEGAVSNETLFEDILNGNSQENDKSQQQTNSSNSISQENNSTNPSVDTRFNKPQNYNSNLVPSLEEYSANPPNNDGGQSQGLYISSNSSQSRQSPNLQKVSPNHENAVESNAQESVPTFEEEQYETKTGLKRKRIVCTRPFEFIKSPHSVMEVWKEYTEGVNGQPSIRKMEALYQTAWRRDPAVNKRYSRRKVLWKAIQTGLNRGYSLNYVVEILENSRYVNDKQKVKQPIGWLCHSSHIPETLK
Method in brief: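 Each ungapped eight-base word and its reverse complement, pooled, received an E-score from the Universal PBM Analysis Suite. Underlying scans, normalised with masliner, recorded fluorescent anti-GST bound to GST-tagged yeast transcription factors. These were applied at about 100-200 nM to universal all-10-mer Agilent arrays double-stranded by primer extension.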

Sequence	PBM E-score
CTAAAACC	0.0697
ACCGAGCG	-0.0724
ACAGCACG	0.0367
CGCGTCGA	0.0801
AAAGGCAC	-0.123
AGTACAAG	0.251
AACACCAA	-0.0236
ATCATTTC	0.245
ATACAACG	0.19
AACTGGGT	-0.125
AAATGCCC	-0.157
ACCTTCCG	0.0345
ACGATTTG	-0.0467
CTATTAGC	0.077
CGTCTGAA	0.114
CTGGCTTA	-0.208
GGTTCGCA	-0.201
AATTTTAA	0.0965
GCGGTGCA	-0.331
ATAGCCAA	0.148
AATGAGTA	0.158
ATTAAATG	0.207
CTGTACCC	-0.0861
GGTAAAGA	0.0743
ATCAGCAG	0.0578

Sequence	PBM E-score
AGGAGCCT	-0.298
CACTGGAG	-0.337
ACAGCGTC	0.0533
GCTTGGGA	-0.0579
ACATCCGG	0.223
CGGACGCC	-0.0766
GGATGGAA	-0.179
AATGGCCT	-0.164
TTCCGAAA	0.0799
CCAAGTTA	-0.0486
ATTTAATC	0.158
TAAGTACA	0.287
GGGTCCAA	-0.104
GGAATAAA	0.119
CGGACCTA	0.00062
ATCATAAA	0.201
ACACTCCC	-0.146
CATTTTCA	0.224
CAGGAATA	-0.0463
GGTCCGTA	0.00752
GGTATGCA	-0.0214
CGGTATAC	-0.119
AGAGGCCT	-0.213
AAGGTTGC	-0.246
ATCGATGG	-0.0131

Sequence	PBM E-score
GCCTCACC	-0.183
GGCTCGAC	-0.105
CGCTTGGA	0.115
CAGTATGC	-0.0723
AGTGTAAA	0.0278
TATCTCGA	-0.0435
GTGCCAGA	-0.177
ACTCCAAC	0.0775
ACTCTAAT	0.101
GATCCTCC	-0.112
GCAGCAAA	0.00496
GGGATTGA	0.0459
CGGGGGGC	-0.362
CACGTGTC	0.257
GGGCCCAA	-0.152
AAATCTAA	-0.0324
AGTTTTGA	-0.0723
GCCTGAAC	-0.251
CCCTACGC	-0.241
CCCCACCC	-0.059
CTTCAGAA	0.0967
GGGCCACC	-0.185
AAAGGAAA	0.0167
ATGTAACA	0.0892
CTCGGCGA	0.153

Sequence	PBM E-score
GTGTTTCA	-0.0738
GCTATAAC	-0.107
AGGAAGGC	-0.135
ACCTTCGG	0.136
CAATGTCC	0.47
ATCAGCCC	-0.282
CCATATTC	-0.0353
AGTATTAG	0.15
AAATCGGC	0.061
CGGTGACC	-0.155
AGCAACCA	0.0157
AAAAACCT	0.0792
CTGCCCGA	-0.0218
AAGCGCCC	-0.264
AAAGGGTA	0.0271
TCAAATCA	0.0292
CGAGTCTA	-0.271
CAAGGGGA	0.0601
AGGGCCTG	-0.165
GAACATTA	0.195
ATTGCCTG	0.00362
CACGGATG	-0.00476
AACTGATG	-0.0617
CCATCACA	-0.184
GTACGAAA	0.249

Sequence	PBM E-score
GAACTATA	0.232
ACTCTAGG	-0.144
CGGACAGC	0.182
CCGAGAGA	-0.0155
AACTCATA	0.117
AGTTATAT	0.105
ACGCGCGA	-0.0535
AAAGAGCA	0.0285
GTTACCAA	0.14
ACAGAGTC	-0.0137
GAGTTTCC	-0.0421
GTTGCTCA	-0.14
CGGGACAG	0.197
AGCGCCAA	-0.244
ACTCACCT	-0.373
CGGTAAAC	-0.0747
AATGGCGC	-0.106
AAGGTGGA	-0.16
AGACATCG	0.226
ATCCTGAA	0.0111
ATGCCAAA	-0.00556
CGATTACA	0.0854
GTCCCCGA	0.144
CGACTCAA	0.0429
CGACGTAA	0.167

Sequence	PBM E-score
ACCGGTAT	-0.11
CACAGCAA	0.252
ACTGCTAT	-0.146
TAGACTCA	-0.147
ACTCGGTC	0.0379
GCGCAAGC	-0.271
ACACCAGC	-0.204
ACGCTTAA	-0.0228
ATTAGTTG	0.174
GCCTACTA	0.0105
CTAATACC	-0.0913
ACTAGTCC	0.183
AACTCGCG	0.137
GGGTAAGA	-0.0207
TACCATCA	-0.243
ATAATAAA	0.187
AGGGGACC	-0.207
CGCTTTGA	-0.00333
ATATTTAA	0.258
GACATTGC	0.434
ATGGTCCC	-0.169
CGGTACTC	-0.0617
AAGAGCGG	-0.132
AGAGCAAT	-0.169
TCACCCGA	0.0453

Sequence	PBM E-score
CACCTTTC	0.0325
AAAAAGAC	0.219
AGCTGATA	-0.135
TCAGACGA	0.0574
AAGAGGAC	0.0335
CACATCAC	-0.107
CTAAGTAC	0.138
GCATAAAC	0.0323
ATCCTGTC	0.11
AACATAGT	-0.0153
ATAGCTCA	-0.195
CACTAAGA	0.169
CGGGCCAA	-0.0575
GCAGCGCC	-0.103
ACGTAGCT	-0.0308
CGGTGTCC	0.304
TGCCCTAA	-0.0784
AAGATAAC	0.0371
ACTTTTTA	0.205
GGCGTGTA	0.0924
ATCGTAAA	0.0575
GCAACGCA	-0.271
